Reference: PubChem BioAssay AID1963576 (National Center for Advancing Translational Sciences (NCATS), 2024)
The campaign covered roughly 46,000 compounds. About 60 (0.1%) were called active. Not shown: some 3% with an inconclusive outcome. Calls come from the whole dose curve; as a rule, active = well fitted inhibition curve with a large enough effect; inconclusive = small, poorly fitted or top-dose-only effect; inactive = no such curve, though single readings can be large or run the other way. Some of the results follow.

test: Primary qHTS assay for Inhibitors of ovarian cancer metastasis using an organotypic tumor microenvironment (TME) model.; note: nearly all actives have a fitted effect of over 65% in size;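 for activity change, negative = inhibition: plate controls were DMSO wells for no effect and tomatine positive control wells for full effect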; settings: SKOV3ip1-GFP adhesion/invasion on 3D omental model, fluorescence; series mostly up to 45.8 µM; activity change, negative = inhibition: at the top concentration
In short: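 Adhesion/invasion was scored as fixed GFP-labeled SKOV3ip1 cell counts (488/509 nm), normalized to DMSO and tomatine controls. Cancer cells in serum-free medium, with four compound doses (0.36-46 umol/L), sat 2 hr at RT then 16 hr at 37 C on a 48 hr fibroblast/mesothelial/ECM culture.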

Activity change, negative = inhibition, inactive:
Cc1ccc(-n2nc3ccc(NC(=O)c4oc5ccc(C)cc5c4C)cc3n2)cc1 0.927%
Cc1ccc(-n2nnc(-c3nsc(NC(=O)c4ccccc4)n3)c2C)cc1 -20.4%
Cc1cc(C(F)F)n2nc(C(=O)Nc3cc(Cl)ccc3C)nc2n1 -7.42%
CC1CCc2noc(NC(=O)c3ccccc3[N+](=O)[O-])c2C1 (stereo unspecified) -4.33%
CCOC(=O)C1CCCN(S(=O)(=O)c2ccc(N3CCCCS3(=O)=O)cc2)C1 (stereo unspecified) 2.7%
CCN(C(=O)Cn1ncc2c(=O)oc3ccc(C)cc3c21)c1cc(OC)ccc1OC 6.4%
CCCOc1ccccc1C(=O)N1CCCCC1CCN1CCOCC1 (stereo unspecified) -6.54%
O=C(Nc1ccc2nc(SCCOc3ccccc3)sc2c1)c1cccs1 0.205%
COc1ccccc1CNC(=O)C1CCN(S(=O)(=O)c2c(C)noc2/C=C/c2c(C)cc(C)cc2C)CC1 6.34%
CN1CCN(C(=O)c2ccc3c(c2)N(Cc2cccc(Cl)c2)C(=O)c2ccccc2S3(=O)=O)CC1 -4.22%
CCCN1C(=O)C(O)(CC(=O)c2ccc(OC)c(OC)c2)c2ccccc21 (stereo unspecified) -2.6%
Cc1c(Cl)cccc1NC(=O)CN1C(=O)COc2ccc(S(=O)(=O)N3CCCCCC3)cc21 0.148%
Cc1coc2c(C)c3oc(=O)c(CC(=O)NCc4ccccc4)c(C)c3cc12 -5.78%
CCOc1ccccc1NC(=O)c1sc2nc(C)cc(C)c2c1N 9.15%
COc1cccc(CNC(=O)CSc2ncc3c(n2)-c2cc(Cl)ccc2N(C)S3(=O)=O)c1 -1.64%
COc1cc(O)c2c(c1)C(=O)c1cc(C)cc(O)c1C2=O -13.9% [at 23.2 µM]
CCOC(=O)c1cnc2c(C)cc(C)cc2c1NCCc1ccc(OC)c(OC)c1 -6.49%
COc1ccc(CNC(=O)Cn2c(=O)oc3cc(S(=O)(=O)N4CCC(C)CC4)ccc32)cc1 -0.94%
Cc1ccc(Cl)cc1-n1c(=O)c2sc3ccccc3c2n(CC(=O)NC2CCCCC2)c1=O 34.2%
Cc1cccc(C)c1NC(=O)c1nc(S(C)(=O)=O)ncc1N(Cc1ccc(F)cc1)Cc1ccco1 13.7%
Cc1ccc(C)n1-c1c(C(=O)NCC(C)c2ccccc2)sc2ncccc12 (stereo unspecified) -5.71%
O=c1c2sc3ccccc3c2n(Cc2ccccc2Cl)c(=O)n1Cc1ccccc1 8.13%
CCc1ccccc1NC(=O)Cn1c(=O)n(CCCS(=O)(=O)C2CCCCC2)c(=O)c2ccccc21 -1.85%
O=C(Cn1c(=O)c2ccccc2n(CC(=O)Nc2ccc(Cl)cc2)c1=O)NCCc1ccccc1 -12.7%
O=C(NCCc1csc(-c2ccc(C(F)(F)F)cc2)n1)C(=O)Nc1cc(F)ccc1F -8.07%
COc1ccc(C(=O)Oc2c(Sc3ccc(Cl)cc3)c(C)nn2C(C)(C)C)cc1OC -0.42%
CCOc1cccc(CNCCNC(=O)c2nonc2N)c1 -7.71%
O=S(=O)(Nc1cccc(-c2ccc(N3CCCCCC3)nn2)c1)c1ccc(F)cc1 -13.7%
CCOC(=O)c1[nH]c(C)c(CCC(=O)Nc2ccc(C(C)=O)cc2)c1C 4.71%
CCOc1ccc(C(=O)Nc2cccc(OCc3cc(=O)n4ccccc4n3)c2)cc1 -6.54%
CCN1CCC(N(Cc2ccc3c(c2)OCO3)C(=O)Nc2cc(F)ccc2F)CC1 1.26%
CCN(CC)C(=O)c1c(NC(=O)c2cccc(C)c2)sc2c1CCC(C)C2 (stereo unspecified) 1.55%
Cc1ccc(NC(=O)c2sc3nc(-c4cccs4)ccc3c2N)cc1F -7.24%
CCOC(=O)N1CCN([N+]([O-])=NOc2ccc([N+](=O)[O-])cc2[N+](=O)[O-])CC1 -4.51%
CCCCc1nnc(SCc2cc(=O)c3cc(F)ccc3[nH]2)n1C 2.91%
O=C(c1cnc(N2CCOCC2)c2ccccc12)N1CCN(c2ccccc2)CC1 5.75%
Cc1cc(C)c(-c2n[nH]c3c2C(c2ccccc2F)N(Cc2ccco2)C3=O)c(O)c1 (stereo unspecified) -22.3%
O=c1[nH]c2cc(Br)ccc2n2cccc12 -27%
Cc1ccc(-n2ncc3c(NC4CCCCCC4)ncnc32)cc1 -0.319%
COc1ccc(C(=O)NCCn2cc(SCc3c(F)cccc3Cl)c3ccccc32)cc1 -7.81%
COc1ccc(CNC(=O)CN2C(=O)CC(c3ccc(C)c(C)c3)=Nc3ccccc32)cc1 -1.22%
CCN(CC)CCSc1c(C(C)C)cnc2c1c(=O)n(C)c(=O)n2C 6.96%
CCOc1ccc(CNC(=O)CSc2nnc(C)c3c(C)n(-c4ccc(Cl)cc4)nc23)cc1 -8.04%
O=C(CN1C(=O)COc2ccc(S(=O)(=O)NC3CCCC3)cc21)NCc1ccc(Cl)cc1 -0.371%
COc1cc(NC(=O)N2CCc3c(sc4c3CCCC4)C2c2ccccc2)cc(OC)c1OC (stereo unspecified) 2.69%
COc1ccc(OC)c2sc(N3CCN(C(=O)c4ccco4)CC3)nc12 3.2%
CN1CCN(C(=O)C(=O)Nc2c3c(nn2-c2ccc(Cl)cc2)CSC3)CC1 1.88%
Cc1c(C(=O)N2CCC(C)CC2)c(S(=O)(=O)N(Cc2ccccc2)C(C)(C)C)c(C)n1C 5.37%
COC(=O)c1ccc(C(=O)OC)c(NC(=O)CN(c2ccccc2)S(=O)(=O)N(C)C)c1 -11.4%
Cc1ccc(NC(=O)Nc2nnc(N3CCCC3)s2)cc1C 6.52%
CCC(=O)NCCc1nc2cc(NC(=O)c3cccc(Br)c3)ccc2n1C 1.68%
Cn1c(=O)c(C(=O)O)nn(-c2ccccc2)c1=O 4.29%
Cc1ccc(N2C(=O)CCSC23C(=O)N(Cc2ccccc2)c2ccccc23)cc1 (stereo unspecified) 1.64%
CCN(CC)C(=O)c1ccc2c(c1)N(Cc1ccc(C(F)(F)F)cc1)C(=O)c1ccccc1S2 -26.5%
Clc1ccc(-n2ncc3c(NC4CCCC4)ncnc32)cc1 -3.46%
Cc1cc(C)c(NC(=O)Cn2c(=O)n(CCC(=O)N3CCc4ccccc4C3)c(=O)c3ccccc32)c(C)c1 -3.52%
CCN(CC)S(=O)(=O)c1ccc2c(c1)N(CC(=O)N1CCN(c3cccc(C)c3C)CC1)C(=O)CO2 -20%
Cc1ccc(Cn2c3ccccc3c3cnn(CC(=O)Nc4cc(Cl)ccc4C)c(=O)c32)cc1 -5.22%
O=C(NCc1ccccc1Cl)c1ccc(CS(=O)(=O)c2ccc(Br)cc2)o1 4.08%
COc1ccc(Nc2ncnc3sc4c(c23)CCCC4)cc1 2.03%
CCOC(=O)C1CCCN(c2nc3c(S(=O)(=O)c4ccc(CC)cc4)nnn3c3ccc(Cl)cc23)C1 (stereo unspecified) -1.27%
COc1ccc(C)cc1NC(=O)Nc1nnc(N2CCCCC2)s1 1.02%
O=C(CSc1n[nH]c(-c2ccccc2Cl)n1)NCCc1ccccc1 10.7%
CCCS(=O)(=O)N1CC(=O)N(c2cccc(F)c2)C(C)(C(=O)NC2CCCCCC2)C1 (stereo unspecified) 4.5%
CCOC(=O)c1c(C)[nH]c(CCC(=O)Nc2ccccc2C(F)(F)F)c1C -6.31%
CCc1ccc(NC(=O)CSc2nnc3[nH]c(=O)cc(-c4ccccc4)n23)cc1 2.66%
CCN(C(=O)CCc1nc(-c2ccc(C)cc2)no1)c1cccc(C(F)(F)F)c1 -5.96%
COc1ccc(Cn2ccc3nc(C)c(C(=O)N4CCN(c5cccc(OC)c5)CC4)cc3c2=O)cc1 3.46%
CCCCC1CCC(C(=O)N2CC(=O)Nc3ccc(C)cc3C2c2ccc(F)cc2)CC1 (stereo unspecified) -15.7%
COc1ccc(NC(=O)c2c(NC(=O)C(F)(F)F)sc3c2CCCCC3)cc1 3.03%
COc1ccc(CNC(=O)c2ccc3c(O)c(S(=O)(=O)c4ccccc4)c(=O)[nH]c3c2)cc1 6.43%
CS(=O)(=O)N(Cc1ccccc1)c1ccc(C(=O)Nc2cccc(Cl)c2)cc1 -5.6%

outcome, inactive:
CCc1cccc(C)c1NS(=O)(=O)c1cc(-c2cc(C)no2)ccc1C
O=C(Nc1ccccc1F)c1nc(SCc2ccc(F)cc2)ncc1Cl
CCc1ccc(NC(=O)c2ccc(F)c(S(=O)(=O)NC3CCCCCC3)c2)cc1
COc1cccc(CNC(=O)CN2C(=O)CSc3c2c(C)nn3-c2ccccc2)c1OC
Cc1cc(-c2ccc(C)c(S(=O)(=O)Nc3ccccc3C(F)(F)F)c2)on1
COc1ccc(C(=O)N(Cc2ccc(N(C)C)cc2)Cc2ccco2)cc1Cl
Cc1c(CCNC(=O)Cc2ccc(F)cc2)sc2nc(-c3ccc(F)cc3)nn12
CCCCN(C)CCNC(=O)C1CCCN(S(=O)(=O)c2ccc3c(c2)oc(=O)n3C)C1 (stereo unspecified)
COc1ccc(NC(=O)CCCn2c(=O)c3cccn3c3ccccc32)c(OC)c1
O=C1C(c2cccc(Br)c2)N(CCc2ccccc2)C(=O)CN1C1CCCCC1 (stereo unspecified)
Cc1cccc(CNS(=O)(=O)c2csc(C(N)=O)c2)c1
Cc1ccccc1NS(=O)(=O)c1nnc(NC(=O)c2ccc(Cl)cc2)s1
CC(C)(C)NC(=O)C1CCN(c2nc3ccccc3nc2C(F)(F)F)CC1
COc1ccc(-c2cc(C(F)(F)F)nc(SCCC(=O)Nc3ccc(OC)c(OC)c3)n2)cc1
COc1cccc(CNC(=O)CSC2=Nc3ccccc3N=C(c3ccc(F)cc3)C2)c1
CCOCCCn1c(=N)c(C(=O)NCc2cccnc2)cc2c(=O)n3ccccc3nc21
Cc1c(CNC2CCCCC2)c(C(=O)O)c(C)n1Cc1ccc(Cl)cc1
CCOC(=O)C1CCN(C(=O)Cn2nc(CC)n3c(cc4sccc43)c2=O)CC1
Cn1nnnc1SCCCNCc1ccccc1OCc1ccc(Cl)cc1
CC(NC(=O)Cn1ccc2cc(S(=O)(=O)N3CCCCCC3)ccc21)c1ccccc1 (stereo unspecified)
COc1ccc(N2CCN(C(=O)c3cccn3-c3nnc(N4CCCC4)s3)CC2)cc1
CCc1nn(CCCC(=O)NCc2ccc(OC(C)C)cc2)c(=O)c2cc3occc3n12
O=C(CCS(=O)(=O)c1cc2c(cc1Cl)NC(=O)CO2)NCCc1ccccc1
COc1ccc(C(=O)Nc2ccc(S(=O)(=O)Nc3cc(C)nc(C)n3)cc2)cc1
